This passage reports survival results from PubChem BioAssay AID463173 (ICCB-Longwood Screening Facility, Harvard Medical School, 2010).

The structures appear in SMILES notation. Among all 52,000 compounds or so, about 1,700 (3.3%) were called active. Rule as the data show it: active = survival mostly below about 52% (no sharp cut-off); inactive = mostly above about 56%. The list shows a part of the results.

The subject of this experiment is Wild type. Nature of the experiment: S. aureus survival, RN4220 and DeltatarO strains – OD600, teichoic acid synthesis inhibitors, primary screen (AID 463173). The conditions noted are these: S. aureus RN4220 wild type/DeltatarO growth, OD600, 18 h, stronger effect = lower value, screened at 18.75 µg/mL (by protocol).
`COc1ccccc1CNc1nc(-c2ccco2)nn1S(C)(=O)=O`: the survival was inactive: 86%.

Consider `Cc1cccc(Cn2c(=O)n(CCCC(=O)NCc3ccccc3Cl)c(=O)c3ccccc32)c1`, for which the survival was inactive: 125%.

As to `Cc1cc(-c2ccc(C)c(S(=O)(=O)Nc3ccccn3)c2)on1`, the survival was inactive: 73%.

Regarding `COc1cc(OC)c(NS(=O)(=O)c2c(C(=O)N3CCCCCC3)c(C)n(C)c2C)cc1Cl`, the survival was inactive: 54%.

In the case of `COc1ccc(-n2cc(-c3ccccc3)nc2SCC(=O)Nc2ccccc2C)cc1`, the survival was inactive: 70%.

Turning to `CCOC(=O)N1CCc2c(sc(NCc3cccc(F)c3)c2C(=O)Nc2ccc(OC)cc2)C1`, the survival is inactive: 126%.

As to `Cc1ccc(CNc2nc3ccc(Cl)cc3n3nnnc23)cc1`, the survival was inactive: 93%.

As for `COC(=O)CC1Oc2ccc(F)cc2-n2cc(-c3ccc(C)cc3)nc21` (stereo not given), the survival is inactive: 105%.

Turning to `COc1cc(NC(=O)CCn2c(=O)oc3ccccc32)cc(OC)c1OC`, the survival was inactive: 89%.

Take `CSc1ccc(NC(=O)C2CCN(c3ncccn3)CC2)cc1`: the survival was inactive: 124%.

`CCN1CCN(c2ncc3c(n2)CCN(CC(C)C)C3)CC1`: the survival is inactive: 82%.

Take `COc1ccc(N(Cc2cccs2)C(=O)COc2cccc(C)c2C)cc1`: the survival is active: 12%.

In the case of `Cc1cccc(CC(=O)N2CC(=O)Nc3ccc(C)cc3C2c2ccc(F)cc2)c1` (stereo not given), the survival is inactive: 83%.

For the molecule `CCOc1ccc(-n2ccnc2SCC(=O)Nc2cccc3ccccc23)cc1`, the survival is inactive: 86%.

With `O=C(CSc1nnc(Cn2nnc3ccccc32)o1)N(Cc1ccc(Cl)cc1)c1ccccc1`, the survival is inactive: 141%.

As for `N=c1c(S(=O)(=O)c2ccccc2)cc2c(=O)n3ccccc3nc2n1Cc1cccnc1`, the survival was inactive: 107%.

On to `COc1ccc(Br)cc1CNC(=O)c1ccc2nc(C(C)C)oc2c1`, for which the survival was inactive: 75%.

Take `CCOc1ccccc1CNC(=O)CCC(=O)N1CCSc2ccccc21`: the survival is inactive: 102%.

For `Clc1nc2ccccc2c(N2CCCCC2)c1CNC1CC1`, the survival is inactive: 100%.

Take `COc1ccccc1Cc1nc2ccccc2nc1SCC(=O)Nc1ccc2c(c1)OCO2`: the survival is inactive: 45%.

Turning to `COc1ccccc1CNC(=O)CCCCn1c(=O)c2ccccc2n(CC(=O)Nc2c(C)cc(C)cc2C)c1=O`, the survival was inactive: 102%.

On to `O=[N+]([O-])c1cc(-c2nc(-c3ccccc3)no2)ccc1NCc1cccnc1`, for which the survival is inactive: 76%.

With `Cc1ccc(NC(=O)CN2C(=O)C(c3ccc(C(C)(C)C)cc3)=NC2(C)C)cc1`, the survival is inactive: 74%.

For `CCCN(CCC)C(=O)CSc1c2c(nc3ccc(Cl)cc13)CCCC2`, the survival was inactive: 52%.

On to `Nc1nnc(CCc2ccccc2)s1`, for which the survival was inactive: 110%.

`COc1ccc(N2CCN(C(=O)COc3ccccc3C#N)CC2)cc1`: the survival was inactive: 86%.

As to `Cc1cc(C)cc(-n2c(SCC(=O)Nc3cccc(F)c3)nc3c([nH]c4ccccc43)c2=O)c1`, the survival is inactive: 76%.

Turning to `Cc1ccc(S(=O)(=O)CCc2nnc(NC(=O)CCCC(=O)Nc3cc(C)on3)s2)cc1`, the survival is inactive: 105%.

As for `Brc1ccc(Nc2c3c(nc4nncn24)CCC3)cc1`, the survival was inactive: 80%.

For `Cc1ccc(C(=O)Nc2ccc(-c3nc4ccccc4o3)cc2)cc1Cl`, the survival is inactive: 91%.

Take `C=CCn1c(SCC(=O)Nc2cc(OC)c(NC(=O)c3ccco3)cc2OC)nnc1-c1ccncc1`: the survival is inactive: 98%.

Take `Cc1ccc(C)c(NC(=O)C(Cc2ccccc2)n2cccc2)c1` (stereo not given): the survival was inactive: 134%.

Take `CCOC(=O)C1=C(N)Oc2cc(C)oc(=O)c2C1c1ccccc1F` (stereo not given): the survival was inactive: 104%.

On to `COc1ccc(OC)c(NC(=O)Cn2c(=O)n(Cc3ccco3)c(=O)c3cc(OC)c(OC)cc32)c1`, for which the survival was inactive: 65%.

As to `Cc1ccc(NC(=O)C2CCC(CNS(=O)(=O)c3ccc4c(c3)CCCC(=O)N4)CC2)cc1F` (stereo not given), the survival is inactive: 72%.

Turning to `COCCNc1nc2c(c(=O)n(Cc3cccc(Cl)c3)c(=O)n2C)n1C`, the survival was inactive: 71%.

Consider `COc1ccc(OCC(=O)Nc2c(C(=O)N3CCN(c4ccccc4)CC3)oc3ccccc23)cc1`, for which the survival was inactive: 91%.

As for `CCc1ccc(NC(=O)C2=C(C)C(=O)OC23CCCCC3)cc1`, the survival was inactive: 92%.

Consider `COc1ccc2c(c1)c1c(c(=O)n(Cc3ccccc3)c(=O)n1Cc1ccccc1Cl)n2C`, for which the survival is inactive: 84%.

As for `O=C(O)c1cccc(NC(=O)c2cc3cc(Br)cc(Br)c3oc2=O)c1`, the survival is inactive: 79%.

For `COc1ccc(-c2[nH]nc3oc(=O)cc(C)c23)cc1`, the survival was inactive: 111%.

As to `Cc1cccc(C)c1NC(=O)C(c1ccccc1)N(Cc1ccco1)C(=O)Cn1nnc2ccccc21` (stereo not given), the survival is inactive: 116%.

With `CCOC(=O)c1c(-c2ccc(OC)c(OC)c2)csc1NC(=O)c1ccc(C)cc1`, the survival is inactive: 77%.

For `CCCCN1CCCc2cc(CN(CCCN3CCOCC3)C(=O)Nc3ccc(CC)cc3)ccc21`, the survival is inactive: 73%.

`CCOC(=O)c1cc(-c2ccccc2)n(CCC(=O)NCCc2cccc(C)c2)c1C`: the survival is inactive: 49%.

Take `COc1ccc(S(=O)(=O)NCCc2sc3nc(-c4ccc(C)cc4)nn3c2C)cc1C`: the survival is inactive: 82%.

Turning to `CCCCNc1oc(-c2ccc(COc3ccccc3C)o2)nc1C#N`, the survival was inactive: 125%.

`COc1ccc(S(=O)(=O)N(CC(=O)NCCSc2ccccc2)c2ccc(C)cc2)cc1`: the survival was inactive: 67%.

For `Cc1cc(=O)[nH]c(SCC(=O)NC2CCCCC2)n1`, the survival was inactive: 113%.

For the molecule `CC(=O)c1cccc(NC(=O)Cc2ccc(NC(=O)N3CCCCc4ccccc43)cc2)c1`, the survival is inactive: 60%.

Take `CCC(=O)N1CCc2cc(S(=O)(=O)CCC(=O)N3CCN(c4ccccc4F)CC3)ccc21`: the survival was inactive: 87%.

`Cc1ccc(CNC(=O)c2cc3sccc3n2Cc2ccc(F)cc2)cc1`: the survival was inactive: 98%.

As to `Cc1cc2oc(C(=O)Nc3nc(-c4ccccc4)ns3)c(C)c2cc1Cl`, the survival is inactive: 71%.

Turning to `Cc1ccc(NC(=O)CN2C(=O)CCc3cc(S(=O)(=O)N4CCOCC4)ccc32)c(C)c1`, the survival is inactive: 71%.

Regarding `CCOc1ccc(CNC(=O)c2sc3nc(C)cc(C)c3c2-n2cccc2)cc1`, the survival is inactive: 95%.

For the molecule `CN1CCN(C(CNC(=O)C(=O)Nc2ccc(F)cc2)c2cccnc2)CC1` (stereo not given), the survival is inactive: 96%.

In the case of `Cc1ccc(C)c(Cn2nnc(C(=O)NCc3ccccc3)c2N)c1`, the survival is inactive: 83%.

As to `CC(=O)c1ccc(NS(=O)(=O)c2ccc3[nH]c4c(c3c2)CCCCCC4)cc1`, the survival was inactive: 82%.

Turning to `CCC(CC)C(=O)N1CCc2cc(OC)c(OC)cc2C1COc1ccccc1OC` (stereo not given), the survival was inactive: 66%.

For the molecule `Cc1nc2cc(-c3cccc(F)c3)nn2c(C)c1CCC(=O)NC1CCCCC1`, the survival was inactive: 94%.

Turning to `CCC1CCCCN1C(=O)CSc1nnc2c3ccccc3n(CC(=O)O)c2n1` (stereo not given), the survival was inactive: 126%.

Regarding `CCOc1ccc(NC(=O)CSc2nnc(NC(=O)Nc3ccccc3)s2)cc1`, the survival was inactive: 71%.

On to `Cn1c(NN)nc2c(c1=O)C1(CCCC1)Cc1ccccc1-2`, for which the survival was inactive: 104%.

Turning to `CCOc1ccc(-c2nonc2NC(=O)COc2ccc(C)c(C)c2)cc1OCC`, the survival was inactive: 117%.

Take `COc1ccc(-c2nn(C)c3sc(C(=O)N4CCN(c5cc(Cl)ccc5C)CC4)cc23)cc1OC`: the survival was inactive: 83%.

On to `O=C(c1ccc2c(c1)N(Cc1cccc(Cl)c1)C(=O)c1ccccc1S2(=O)=O)N1CCN(c2cccc(C(F)(F)F)c2)CC1`, for which the survival was inactive: 73%.

As to `COc1ccc(C(=O)CCC(=O)Nc2cccc(C(C)=O)c2)cc1`, the survival is inactive: 72%.

With `COc1ccc(CCNC(=O)Cn2c(=O)c3cccn3c3ccc(F)cc32)cc1OC`, the survival was inactive: 89%.

As for `CCOc1ccc(-c2cnc(NCc3cccc(Cl)c3)n2C)cc1`, the survival was inactive: 52%.

Consider `Cc1ccc(Cn2c(=O)n(Cc3ccc(Cl)cc3)c(=O)c3cccnc32)cc1`, for which the survival was inactive: 86%.

In the case of `COc1cccc(NC(=O)C(=O)NCC(c2cccnc2)N2CCN(c3ccccc3)CC2)c1` (stereo not given), the survival is inactive: 107%.

Take `Cc1ccccc1-n1nc(CO)c(C(=O)NCCc2ccccc2)n1`: the survival was inactive: 84%.

`CC1CCc2c(sc(NC(=O)c3ccccc3)c2C(=O)Nc2ccccc2)C1` (stereo not given): the survival is inactive: 64%.

For the molecule `CCc1cc2c(=O)n(-c3ccccc3)c(SCC(=O)c3cccs3)nc2s1`, the survival is inactive: 99%.

Regarding `Cc1cccc(CSc2cn(CC(=O)N3CCCCCC3)c3ccccc23)c1`, the survival is inactive: 90%.

With `COc1ccc(OC)c(CNc2ncnc3onc(-c4ccc(Cl)cc4)c23)c1`, the survival was inactive: 69%.

For the molecule `CCOC(=O)CSc1nc2ccc(NC(=O)COc3ccccc3)cc2s1`, the survival is inactive: 98%.

For the molecule `CCOC(=O)C(C)Sc1nnc(-c2ccc(F)cc2)o1` (stereo not given), the survival was inactive: 110%.

For `N#CC1=C(S)NC(=O)C(C#N)C12CCCCC2` (stereo not given), the survival was inactive: 127%.

As to `CCCCN(C)CCNC(=O)C1CCN(c2nc3ccc(CC)cc3s2)CC1`, the survival was inactive: 56%.

For the molecule `O=C(NCc1ccc(Cl)cc1)c1cnc2sc(N3CCCCCC3)nn2c1=O`, the survival is inactive: 68%.

As to `CCCOc1ccc(-c2cccc(NS(=O)(=O)c3cc(OC)ccc3OC)c2)nn1`, the survival was inactive: 78%.

Consider `O=C(CCC(=O)N1Cc2ccccc2Oc2ncccc21)NCc1ccccc1Cl`, for which the survival is inactive: 88%.

As to `Cc1cc(C)n(CCCC(=O)NCCn2nccc2C)n1`, the survival was inactive: 119%.

In the case of `COc1ccc(Cl)cc1NC(=O)C1CCN(c2ncnc3c2nc2n3CCCCC2)CC1`, the survival was inactive: 82%.

As for `CCN(CC)c1ccc(NC(=O)c2cnn3c(C(F)F)cc(-c4ccccc4)nc23)cc1`, the survival was inactive: 59%.

Turning to `COc1ccc(C(c2c(O)cc(C)n(Cc3ccco3)c2=O)N2CCN(c3ccccc3)CC2)cc1` (stereo not given), the survival was inactive: 78%.

Regarding `COc1ccc(OC)c(NC(=O)C2CCN(S(=O)(=O)c3ccc(C)cc3)CC2)c1`, the survival is inactive: 76%.

Consider `COc1cccc(N2C(=O)C(CC(=O)Nc3cccc(F)c3)N(C(C)C)C2=O)c1` (stereo not given), for which the survival is inactive: 78%.

For the molecule `Cc1cccc(CC(=O)NC2CC(=O)N(c3cccc(F)c3)C2)c1` (stereo not given), the survival was inactive: 60%.
